Data: ChEMBL document CHEMBL4888484, “Replenishing the malaria drug discovery pipeline: Screening and hit evaluation of the MMV Hit Generation Library 1 (HGL1) against asexual blood stage Plasmodium falciparum ,using a nano luciferase reporter read-out” (2022)
The whole screen tested about 150,000 compounds, of which about 540 (0.36%) showed an effect of 50% or more. This is one part of the list.

Each compound was assayed on Plasmodium falciparum (assay: Primary screen in NF54 nanoGlo assay, in single point, at 2uM, 72h; a lower Z score goes with more inhibition). Conditions: timepoint 72 hour.
Assay type: functional, Erythrocyte

Row | SMILES | % Inhibition | Z score
1 | CC[C@H](C)N(Cc1c(-c2ccccc2)noc1N1CCOCC1)C(=O)c1ccccc1 | -8% | 1.4
2 | CC(C)(C)c1nc(C#N)c(NCCOc2ccccc2)o1 | 1% | -0.24
3 | Cc1nc(C(C)(C)NC(=O)C[C@@H]2C=CCC2)sc1C | -7% | 1.16
4 | Cc1ccc(NC(=O)CN2CCN(c3ccc4c(c3)OCCO4)C2=O)cc1F | -11% | 1.94
5 | NC(=O)c1nsc2c(=O)n(CC(=O)NCc3ccccc3)cnc12 | 2% | -0.39
6 | O=C1CCN(c2nc(C3CCCC3)nc3c2CCNCC3)CCN1 | 14% | -1.74
7 | Cc1ccc(-c2ccc3nn(Cc4ccc5c(c4)OCO5)c(=O)n3n2)cc1C | 2% | -0.25
8 | CC(Oc1ccccc1)C(=O)NC1CC2CCC1C2 (centres undefined) | -26% | 2.33
9 | CC[C@](C)(NC(=O)c1cccc(-n2cnnn2)c1)c1nc(C)cs1 | -7% | 1.33
10 | Cc1cc(CNCc2ccccc2)c(C)n1-c1cccc(S(=O)(=O)N2CCOCC2)c1 | 4% | -0.62
11 | CCc1nc(CN2C[C@@H]3CC[C@H]2CN(C2CCOCC2)C3)cs1 | 7% | -0.93
12 | COc1ccc(C(=O)CN2C=CCC=C2c2nc(-c3ccc(Cl)cc3)cs2)cc1 | 75% | -6.73
13 | C[C@@H](c1ccccc1Br)N(C)CC(C)(C)S(C)(=O)=O | -2% | 0.3
14 | O=S(=O)(Nc1cccc2oc(C(F)(F)F)nc12)c1ccc(Br)cc1 | 18% | -3.12
15 | Cc1cc(C(=O)N(C)C(C)C(C)S(C)(=O)=O)c(C)o1 (centres undefined) | -14% | 1.29
16 | O=C(CCN1CCC[C@H](n2cncn2)C1)c1ccccc1 | -11% | 1.53
17 | CCn1c(-c2ccc(C(=O)NCc3ccc(OC)c(OC)c3)cc2)nc2cccnc21 | 0% | -0.06
18 | CC1(NC(=O)C[C@H](O)c2cc(Cl)cc(Cl)c2)CCOCC1 | -3% | 0.31
19 | CCC(C)C(OC)C(=O)Nc1ccc(C)nc1 (centres undefined) | -8% | 0.85
20 | NC(=O)[C@@H]1COCCN1CC(=O)N1CCC(Cc2ccccc2)CC1 | -1% | 0.13
21 | C#CCCC1(CCC(=O)N2CCN(Cc3cc(C)no3)CC2)N=N1 | -17% | 1.95
22 | Cc1nc(O)[nH]c(=O)c1S(=O)(=O)N(Cc1ccccc1)Cc1ccccc1 | 10% | -1.2
23 | O=C([C@H](Cc1ccccc1)NS(=O)(=O)c1ccccc1F)N1CCOCC1 | -9% | 1.32
24 | Cc1noc(C)c1CC(=O)N[C@@H](C)c1nnc2n1CCCCC2 | -6% | 0.92
25 | CCNC(=O)c1csc(COc2ccc3c(c2)[C@H](c2ccccc2)N(C(=O)c2ccco2)CC3)n1 | -8% | 0.71
26 | Cc1ccccc1CCNC(=O)[C@H]1CCCN(c2nc3ccc(Br)cc3[nH]2)C1 | 6% | -1.11

Row | SMILES | % Inhibition | Z score
27 | COc1ccc(F)c(CN2CCC[C@@]3(CCN(C(=O)Cn4ccnc4)C3)C2)c1 | -9% | 1.25
28 | O=C1CN(C(=O)Cn2c(-c3ccccc3)nn(-c3ccc(Cl)cc3)c2=O)CCN1 | -6% | 0.83
29 | CC(C)CN1CCC([C@H]2CCN(c3ccnc(N)n3)C2)CC1 | -1% | 0.18
30 | COCCNc1cncc(-c2ccsc2)c1 | -4% | 0.6
31 | COc1ccccc1N1CCN(C(=O)c2cnc(-c3ccc4c(c3)OCO4)nc2Nc2cccc(F)c2)CC1 | -13% | 1.25
32 | CCCc1ccc([C@@]2(C)NC(=O)N(CC(=O)N3CCc4cc(OC)c(OC)cc4C3)C2=O)cc1 | -5% | 0.44
33 | O=C1[C@@H](n2ccnn2)CCN1c1ccccc1Cl | 11% | -1.42
34 | O=C(NCCN1CCCC1)Nc1cccc(-c2cscn2)c1 | 12% | -1.75
35 | CC(C)Oc1ccc(C(=O)N2Cc3cncnc3C2)nc1 | 0% | 0.05
36 | COc1ccc2c(c1)CCCN(C(=O)[C@H]1CCc3nc(C)nn3C1)C2 | -7% | 0.78
37 | Cc1ccnc(NC(=O)c2cc(N3CCCC3)ncn2)c1 | -4% | 0.71
38 | Cc1c(-c2nnc(C(=O)NCCc3ccc(Cl)cc3)o2)oc2ccccc12 | -19% | 2.93
39 | Cc1cc(CN2CCN(C(=O)NCC3CCC(C)(C)CC3)CC2)on1 | -12% | 1.69
40 | C[C@@H]1NC(=O)COc2cc(O)cc(c2)C(=O)NCCCN(C(=O)C2C(C)(C)C2(C)C)CCCCN(C)C1=O | 7% | -1
41 | CCc1c(C(=O)N(C)Cc2ccccc2)c(=O)cc(C)n1C[C@H]1CCCN1CC | -10% | 1.91
42 | COCC(C)NC(=O)c1cc2n(n1)[C@H](C(F)(F)F)C[C@H](c1ccco1)N2 (some centres undefined) | 0% | 0.06
43 | C#CCNC(=O)c1c(-c2ccc(F)cc2)[nH]n(C(C)C)c1=O | -20% | 2.04
44 | COc1ccc2nc(N3CC(C(=O)Nc4cccc5nc(C)ccc45)C3)sc2c1 | 5% | -0.79
45 | C[C@]1(CNC(=O)CN2CCOCC2)CCCN1Cc1ccccc1 | -2% | 0.44
46 | O=C(Cn1ncc2c([nH]c3ccccc32)c1=O)N1CCC(Cc2ccccc2)CC1 | -4% | 0.58
47 | C[C@@H](Cc1cccc(F)c1)C(=O)NC1CCS(=O)(=O)CC1 | -19% | 3.36
48 | Cc1noc([C@H](C)NC(=O)c2ccncc2C)n1 | -15% | 1.57
49 | C[C@@H]1CN(c2nnc(-c3n[nH]c4c3CCCC4)n2C)C[C@H](C)O1 | -14% | 2.01
50 | Cc1c(Cl)cnc(NC(=O)COC(=O)[C@H](C)NC(=O)c2ccccc2)c1Cl | -3% | 0.51
51 | O=c1c(Cc2ccccc2)c(O)nc2ccccn12 | 5% | -0.59
52 | CN(C)C(=O)c1cncc(N[C@@H](CC(C)(C)C)c2cccnc2)n1 | -20% | 2.56
